# Measured values reported in the supplement of paper PMC8728848.
# The list shows a part of the results.
# Key:
# Assay in all cases: glycan array binding signal (z-score within array); higher = stronger binding
# Settings in all cases: glycan notation: IUPAC condensed, linker removed
# [1] = molecular target: GlcNAc(b1-4)GlcNAc(b1-4)GlcNAc(b1-4)GlcNAc(b1-4)GlcNAc(b1-4)GlcNAc
# Summary of the method: (§1)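 The binding signal is a Z-score computed within each array. Data were drawn from 3228 arrays in the Consortium for Functional Glycomics database, restricted to those with a known protein sequence. Scores were averaged over arrays of the same protein sequence at different concentrations or buffers, and over linkers, and negative values can be taken as non-binding.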
# [2] = molecular target: GlcNAc(b1-4)[GlcNAc(b1-6)]GalNAc
# Summary of the method: as §1
# [3] = molecular target: GlcNAc(b1-6)Gal(b1-4)GlcNAc
# Summary of the method: as §1
# GlcNAc(b1-6)GalNAc = molecular target: GlcNAc(b1-6)GalNAc
# Summary of the method: as §1
# [4] = molecular target: GlcNAc6S(b1-3)Gal(b1-4)GlcNAc
# Summary of the method: as §1
# Kdn(a2-3)Gal(b1-3)GalNAc = molecular target: Kdn(a2-3)Gal(b1-3)GalNAc
# Summary of the method: as §1
# Kdn(a2-3)Gal(b1-3)GlcNAc = molecular target: Kdn(a2-3)Gal(b1-3)GlcNAc
# Summary of the method: as §1
# Kdn(a2-3)Gal(b1-4)Glc = molecular target: Kdn(a2-3)Gal(b1-4)Glc
# Summary of the method: as §1
# Kdn(a2-3)Gal(b1-4)GlcNAc = molecular target: Kdn(a2-3)Gal(b1-4)GlcNAc
# Summary of the method: as §1
# [5] = molecular target: Kdn(a2-3)Gal(b1-4)[Fuc(a1-3)]GlcNAc
# Summary of the method: as §1
# Kdn(a2-6)Gal(b1-4)GlcNAc = molecular target: Kdn(a2-6)Gal(b1-4)GlcNAc
# Summary of the method: as §1
# [6] = molecular target: Man(a1-2)Man(a1-2)Man(a1-3)Man
# Summary of the method: as §1
# [7] = molecular target: Man(a1-2)Man(a1-2)Man(a1-6)[Man(a1-3)]Man
# Summary of the method: as §1
# Man(a1-2)Man(a1-3)Man = molecular target: Man(a1-2)Man(a1-3)Man
# Summary of the method: as §1
# [8] = molecular target: Man(a1-2)Man(a1-3)[Man(a1-2)Man(a1-6)]Man
# Summary of the method: as §1
# [9] = molecular target: Man(a1-2)Man(a1-3)[Man(a1-2)Man(a1-6)]Man(a1-6)[Man(a1-2)Man(a1-2)Man(a1-3)]Man
# Summary of the method: as §1
# [10] = molecular target: Man(a1-2)Man(a1-3)[Man(a1-2)Man(a1-6)]Man(a1-6)[Man(a1-2)Man(a1-2)Man(a1-3)]Man(b1-4)GlcNAc(b1-4)GlcNAc
# Summary of the method: as §1
# [11] = molecular target: Man(a1-2)Man(a1-3)[Man(a1-6)]Man(a1-6)[Man(a1-2)Man(a1-3)]Man(b1-4)GlcNAc(b1-4)GlcNAc
# Summary of the method: as §1
# [12] = molecular target: Man(a1-2)Man(a1-6)[Man(a1-3)]Man(a1-6)[Man(a1-2)Man(a1-2)Man(a1-3)]Man
# Summary of the method: as §1
# [13] = molecular target: Man(a1-2)Man(a1-6)[Man(a1-3)]Man(a1-6)[Man(a1-2)Man(a1-2)Man(a1-3)]Man(b1-4)GlcNAc(b1-4)GlcNAc
# Summary of the method: as §1
# Man(a1-3)[Man(a1-6)]Man = molecular target: Man(a1-3)[Man(a1-6)]Man
# Summary of the method: as §1
# [14] = molecular target: Man(a1-3)[Man(a1-6)]Man(a1-6)[Man(a1-2)Man(a1-3)]Man(b1-4)GlcNAc(b1-4)GlcNAc
# Summary of the method: as §1
# [15] = molecular target: Man(a1-3)[Man(a1-6)]Man(a1-6)[Man(a1-3)]Man
# Summary of the method: as §1
# [16] = molecular target: Man(a1-3)[Man(a1-6)]Man(a1-6)[Man(a1-3)]Man(b1-4)GlcNAc(b1-4)GlcNAc
# Summary of the method: as §1
# [17] = molecular target: Man(a1-3)[Man(a1-6)]Man(b1-4)GlcNAc(b1-4)GlcNAc
# Summary of the method: as §1
# [18] = molecular target: Man(a1-3)[Man(a1-6)]Man(b1-4)GlcNAc(b1-4)[Fuc(a1-6)]GlcNAc
# Summary of the method: as §1
# Man(a1-6)Man = molecular target: Man(a1-6)Man
# Summary of the method: as §1
# Man(b1-4)GlcNAc = molecular target: Man(b1-4)GlcNAc
# Summary of the method: as §1
# MurNAc(b1-4)GlcNAc = molecular target: MurNAc(b1-4)GlcNAc
# Summary of the method: as §1
# Neu5Ac(a2-3)Gal = molecular target: Neu5Ac(a2-3)Gal
# Summary of the method: as §1
# [19] = molecular target: Neu5Ac(a2-3)Gal(b1-3)GalNAc
# Summary of the method: as §1
# [20] = molecular target: Neu5Ac(a2-3)Gal(b1-3)GalNAc(b1-3)Gal(a1-4)Gal(b1-4)Glc
# Summary of the method: as §1
# [21] = molecular target: Neu5Ac(a2-3)Gal(b1-3)GalNAc(b1-4)[Neu5Ac(a2-3)]Gal(b1-4)Glc
# Summary of the method: as §1
# [22] = molecular target: Neu5Ac(a2-3)Gal(b1-3)GalNAc(b1-4)[Neu5Ac(a2-8)Neu5Ac(a2-3)]Gal(b1-4)Glc
# Summary of the method: as §1
# [23] = molecular target: Neu5Ac(a2-3)Gal(b1-3)GalNAc6S
# Summary of the method: as §1
# [24] = molecular target: Neu5Ac(a2-3)Gal(b1-3)GlcNAc
# Summary of the method: as §1
# [25] = molecular target: Neu5Ac(a2-3)Gal(b1-3)GlcNAc(b1-2)Man
# Summary of the method: as §1
binder,measurement,setting,value
PV12658A-bvu-496-32-496 (Bacteroides vulgatus) (protein) DLDGAITTPAAVELALNGIYYSLPGNGFNVIFPTVSGSFKAGTMWRQEIVSAGNAVYYSERMLPTLSFSDATEWDADYAVIKNANFLETACNRMSDGEFSGNRRAEVLGEIAYLRALAYFNILVRYCEFWDMNSEYGVVMRNEAPSVSNALKARSSVADSYQYILDQLEIAIEKAPDWKKLSQASKEAAKALKARVLLYAGKYTEAVAAVNDAIDTNSPLPEANYGDVFDKFSTTKEILFARVFDQKDATNTSTRQQCYGNSPTKKQGYWGPTNEYVELVGDDPRADAIFSKVDSLMDSRSSAVAYNLKSVKKLLNDANDMPVIFSRVSELYLIKAEALYRSGASISEAYAPIRKLRERAGAEIILPANNEELETAIFNEWMLELSFENWHEWFAMIRFAGYTEKPDFTRLLALNKTLREALEKEYEKSEAQGDNYYQRIIDRRIDAIPSSEISSNLECKQNPGY,glycan array binding signal (z-score),[1],-0.318
same,glycan array binding signal (z-score),[2],-0.506
same,glycan array binding signal (z-score),[3],-0.432
same,glycan array binding signal (z-score),GlcNAc(b1-6)GalNAc,-0.328
same,glycan array binding signal (z-score),[4],-0.272
same,glycan array binding signal (z-score),Kdn(a2-3)Gal(b1-3)GalNAc,-0.441
same,glycan array binding signal (z-score),Kdn(a2-3)Gal(b1-3)GlcNAc,-0.137
same,glycan array binding signal (z-score),Kdn(a2-3)Gal(b1-4)Glc,-0.366
same,glycan array binding signal (z-score),Kdn(a2-3)Gal(b1-4)GlcNAc,0.085
same,glycan array binding signal (z-score),[5],-0.226
same,glycan array binding signal (z-score),Kdn(a2-6)Gal(b1-4)GlcNAc,-0.399
same,glycan array binding signal (z-score),[6],-0.554
same,glycan array binding signal (z-score),[7],-0.397
same,glycan array binding signal (z-score),Man(a1-2)Man(a1-3)Man,-0.147
same,glycan array binding signal (z-score),[8],-0.369
same,glycan array binding signal (z-score),[9],-0.122
same,glycan array binding signal (z-score),[10],-0.415
same,glycan array binding signal (z-score),[11],-0.364
same,glycan array binding signal (z-score),[12],-0.356
same,glycan array binding signal (z-score),[13],-0.073
same,glycan array binding signal (z-score),Man(a1-3)[Man(a1-6)]Man,-0.395
same,glycan array binding signal (z-score),[14],0.048
same,glycan array binding signal (z-score),[15],0.601
same,glycan array binding signal (z-score),[16],0.012
same,glycan array binding signal (z-score),[17],-0.379
same,glycan array binding signal (z-score),[18],-0.368
same,glycan array binding signal (z-score),Man(a1-6)Man,0.173
same,glycan array binding signal (z-score),Man(b1-4)GlcNAc,0.232
same,glycan array binding signal (z-score),MurNAc(b1-4)GlcNAc,-0.29
same,glycan array binding signal (z-score),Neu5Ac(a2-3)Gal,-0.374
same,glycan array binding signal (z-score),[19],-0.233
same,glycan array binding signal (z-score),[20],-0.556
same,glycan array binding signal (z-score),[21],0.026
same,glycan array binding signal (z-score),[22],-0.344
same,glycan array binding signal (z-score),[23],-0.469
same,glycan array binding signal (z-score),[24],-0.343
same,glycan array binding signal (z-score),[25],0.22
